Laboratory results reported in publication PMC11661359, “Structure guided functional analysis of the S. cerevisiae Mre11 complex” (Research Square, 2024).
Numbering of substitutions follows the chain as printed. Names and notes keep the numbering of the source. No constants are given. Whether binding was seen depends on the method and setting. For part of these data: In cells and extracts the contact can be indirect. Some entries that bind do so weakly or less than the wild type. For part of these data: Where a sequence is shown, tags or fusion partners need not be part of it.

B1: Rad50-T111A R1201A (enzyme, UniProt P12753 1-1312)
chain: MSAIYKLSIQGIRSFDSNDRETIEFGKPLTLIVGMNGSGKTTIIECLKYATTGDLPPNSKGGVFIHDPKITGEKDIRAQVKLAFTSANGLNMIVTRNIQLLMKKTTTTFKALEGQLVAINNSGDRSTLSTRSLELDAQVPLYLGVPKAILEYVIFCHQEDSLWPLSEPSNLKKKFDEIFQAMKFTKALDNLKSIKKDMSVDIKLLKQSVEHLKLDKDRSKAMKLNIHQLQTKIDQYNEEVSEIESQLNEITEKSDKLFKSNQDFQKILSKVENLKNTKLSISDQVKRLSNSIDILDLSKPDLQNLLANFSKVLMDKNNQLRDLETDISSLKDRQSSLQSLSNSLIRRQGELEAGKETYEKNRNHLSSLKEAFQHKFQGLSNIENSDMAQVNHEMSQFKAFISQDLTDTIDQFAKDIQLKETNLSDLIKSITVDSQNLEYNKKDRSKLIHDSEELAEKLKSFKSLSTQDSLNHELENLKTYKEKLQSWESENIIPKLNQKIEEKNNEMIILENQIEKFQDRIMKTNQQADLYAKLGLIKKSINTKLDELQKITEKLQNDSRIRQVFPLTQEFQRADLEMDFQKLFINMQKNIAINNKKMHELDRRYTNALYNLNTIEKDLQDNQKSKEKVIQLLSENLPEDCTIDEYNDVLEETELSYKTALENLKMHQTTLEFNRKALEIAERDSCCYLCSRKFENESFKSKLLQELKTKTDANFEKTLKDTVQNEKEYLHSLRLLEKHIITLNSINEKIDNSQKCLEKAKEETKTSKSKLDELEVDSTKLKDEKELAESEIRPLIEKFTYLEKELKDLENSSKTISEELSIYNTSEDGIQTVDELRDQQRKMNDSLRELRKTISDLQMEKDEKVRENSRMINLIKEKELTVSEIESSLTQKQNIDDSIRSKRENINDIDSRVKELEARIISLKNKKDEAQSVLDKVKNERDIQVRNKQKTVADINRLIDRFQTIYNEVVDFEAKGFDELQTTIKELELNKAQMLELKEQLDLKSNEVNEEKRKLADSNNEEKNLKQNLELIELKSQLQHIESEISRLDVQNAEAERDKYQEESLRLRTRFEKLSSENAGKLGEMKQLQNQIDSLTHQLRTDYKDIEKNYHKEWVELQTRSFVTDDIDVYSKALDSAIMKYHGLKMQDINRIIDELWKRTYSGTDIDTIKIRSDEVSSTVKGKSYNYRVVMYKQDVELDMAGRCSAGQKVLASIIIRLALSETFGANCGVIALDEPTTNLDEENIESLAKSLHNIINMRRHQKNFQLIVITHDEKFLGHMNAAAFTDHFFKVKRDDRQKSQIEWVDINRVTY
B2: Rad50-K192A R1201A (enzyme, UniProt P12753 1-1312)
chain: B1 chain with A111T, K192A
B3: Rad50-K195A R1201A (enzyme, UniProt P12753 1-1312)
chain: B1 chain with A111T, K195A
B4: Rad50–3KA (Rad50-K192A K195A K196A) (enzyme, UniProt P12753 1-1312)
chain: B1 chain with A111T, K192A, K195A, K196A, A1201R
B5: Rad50 as Gal4 fusion for the yeast two-hybrid assay (enzyme, UniProt P12753 1-1312)
chain: B1 chain with A111T, A1201R
B6: Xrs2 as Gal4 fusion for the yeast two-hybrid assay (protein, UniProt P33301 1-854)
chain: MWVVRYQNTLEDGSISFISCCLQAFKTYSIGRSSKNPLIIKNDKSISRQHITFKWEINNSSDLKHSSLCLVNKGKLTSLNKKFMKVGETFTINASDVLKSTIIELGTTPIRIEFEWINEVWNIPPHLTQFRTMLSEYGISTEISINDIPANLMISDYPKSEDNSIRELYALVSTIPMKKSRFLMELCNTLLPTSKTNLKFDEMWNDMISNPEYNVFDFDPNILLSKFMRLNNIRVLTTIKSEPRLSSLLRTFNINLFAFDNIDSLYKYVDSLEASTEYLILTTTDKKENGKILCTIKTMLTSIIDGTLSAVINMKGASSRTLDNGKFDQISEGMSTILKTSRAPEVEASPVVSKKRKLNRRRVLPLDSLDFFAGGLSTKTLSENRSLTDAKRLNCGAESKTVISSPNIAEADEKHAPFLQNALKPTEDIGKKSGHSSPGAIIVSSPNLGTVNTSEDSLDKSLQSHKLPQPSLPEVAGIGSQTISSNSADYETAAVNSMDDAEVTKNFRVNHHQNIEQPSKNIRKLSNYSREISSPLQENCKSPVKELSIKEKSGTPHAFVEAIQETKNREVKRVKSTIVELKDEELSEEAINQLKNLAIVEPSNNLLRKSFDSEGNKTSRTTEKWENSLMEPEWHKRKNFKTFVKVRPKSKAHKEEGKNNTQSSDFIRNAAFLITRNYVPLKKYSKKDTTTKWGTEENEDMFALTEMERFGSNTFMSDNINSNTIQKRSQALNRFTNEDSSNEGEEDSFSFSRCSGTAASVQPLKNKIFITDEDDLGDIDDKSDRLNHRENNRNLFVVKEMNLRPNLSEECSKQSRHSRSATSRSRGSFGASNNGDGDDDDDDGPKFTFKRRKG
B7: Xrs2 (in S. cerevisiae cell extracts) (protein, UniProt P33301 1-854)
chain: B6 chain
B8: Rad50-MRI-3A (Rad50-E1155A D1167A E1243A) (enzyme, UniProt P12753 1-1312)
chain: B1 chain with A111T, E1155A, D1167A, A1201R, E1243A
B9: Rad50-D1126A (enzyme, UniProt P12753 1-1312)
chain: B1 chain with A111T, D1126A, A1201R
B10: Rad50-D1126N (enzyme, UniProt P12753 1-1312)
chain: B1 chain with A111T, D1126N, A1201R
B11: Rad50-D1126E (enzyme, UniProt P12753 1-1312)
chain: B1 chain with A111T, D1126E, A1201R
B12: Rad50-W1157A (enzyme, UniProt P12753 1-1312)
chain: B1 chain with A111T, W1157A, A1201R

Tests used:
[1] = molecular target: T1, Mre11 (wild type, in S. cerevisiae cell extracts) (S. cerevisiae) (UniProt P32829); assay: co-IP; cells grown at 30°C or 37°C; Rad50, Mre11 or Xrs2 immunoprecipitated from cell extracts, western blot with anti-Rad50, anti-Mre11 or anti-Xrs2 antibodies
T1 sequence: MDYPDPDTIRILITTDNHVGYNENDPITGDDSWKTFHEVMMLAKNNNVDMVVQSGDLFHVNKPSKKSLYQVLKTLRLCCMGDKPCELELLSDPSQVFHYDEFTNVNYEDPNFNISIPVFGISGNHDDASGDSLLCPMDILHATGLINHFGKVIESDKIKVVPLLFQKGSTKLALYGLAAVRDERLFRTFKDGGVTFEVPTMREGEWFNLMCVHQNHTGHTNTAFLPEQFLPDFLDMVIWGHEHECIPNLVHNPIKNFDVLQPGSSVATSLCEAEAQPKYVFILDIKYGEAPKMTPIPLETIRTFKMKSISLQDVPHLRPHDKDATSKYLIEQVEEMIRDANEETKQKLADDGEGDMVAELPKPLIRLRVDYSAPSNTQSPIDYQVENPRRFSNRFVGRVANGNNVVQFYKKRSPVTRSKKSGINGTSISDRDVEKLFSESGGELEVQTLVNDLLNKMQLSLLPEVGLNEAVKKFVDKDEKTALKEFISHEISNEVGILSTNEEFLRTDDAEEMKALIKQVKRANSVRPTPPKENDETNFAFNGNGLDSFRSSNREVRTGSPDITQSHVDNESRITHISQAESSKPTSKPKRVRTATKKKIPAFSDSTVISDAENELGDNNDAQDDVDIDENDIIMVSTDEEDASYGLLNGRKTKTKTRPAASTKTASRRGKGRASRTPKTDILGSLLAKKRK

[2] = molecular target: T2, Mre11 (wild type) as Gal4 fusion for the yeast two-hybrid assay (S. cerevisiae) (UniProt P32829); assay: two-hybrid; Gal4 DNA-binding domain (pGBD; TRP1) and Gal4 activation domain (pGAD; LEU2) fusions; growth in absence of histidine (Do-TLH) and of adenine and histidine (Do-TLAH)
T2 sequence: T1 sequence

Binder | binding [1] | binding [2]
B1 | binds | 
B2 | binds | 
B3 | binds | 
B4 | binds | 
B5 |  | binds
B6 |  | binds
B7 | binds | 
B8 | binds | 
B9 | no binding | 
B10 | no binding | 
B11 | no binding | 
B12 | no binding | 
